# PubChem BioAssay AID504832 (National Center for Advancing Translational Sciences (NCATS), 2011)
# Among all 310,000 compounds or so, about 18,000 (5.8%) were called active. Inconclusive means that the source gave no clear call. Such entries were picked first, then a sample of the others. The call rests on the fitted dose curve; in most records, active means well fitted inhibition curve with a large enough effect; inconclusive means small, poorly fitted or top-dose-only effect, or another doubt; inactive means no such curve, though single readings can be large or run the other way. Potencies of inconclusive entries are left out as doubtful fits.
# Experiment: Primary qHTS for delayed death inhibitors of the malarial parasite plastid, 48 hour incubation
# Settings: P. falciparum luciferase growth in erythrocytes; series mostly up to 28.7 µM; activity change, negative = inhibition: at the top concentration
# Outline: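 Compounds are pin-transferred into medium, infected erythrocytes (2% hematocrit, 0.1% parasitemia final) are added, and plates sit one parasite generation at 37 C in 5% CO2. Detection reagent is then added and luminescence measured.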
# On the % scale 0 is the no-effect control and ±100 the full control effect; potency means the concentration at half of the fitted maximal effect; tags describe the fitted curve by direction and shape.
SMILES,Potency,"activity change, negative = inhibition"
Cc1cc(=O)[nH]c2c1c(=O)[nH]n2C1CC(C)N(C)CC1C (centres undefined),"inconclusive [inhibitor, partial curve, poor fit]",
COc1ccc(-n2nnnc2SCC(=O)NC2CC2)cc1,,inactive: -12.8%
CCc1cc(C(=O)N2CCN(S(=O)(=O)c3ccccc3F)CC2)sc1C,"inconclusive [inhibitor, single point]",
COc1cc(-c2nnc(-c3ccccc3)o2)cc(OC)c1OC,"inconclusive [inhibitor, full curve, poor fit]",
O=C1CC(N2CCN(c3ccccc3)CC2)C(=O)N1c1ccc2c(c1)OCCO2 (centres undefined),,inactive: 7.76%
CCc1cccc2c(C(=O)C(NC(C)CC)c3ccccc3)c[nH]c12 (centres undefined),"inconclusive [inhibitor, partial curve]",
NC(=S)Nn1c(CCC(=O)O)ccc1-c1ccccc1,,inactive: 13.1%
COc1cc2c(N3CCOCC3)cc(O)c(CC(=O)Nc3ccccc3)c2cc1OC,"inconclusive [inhibitor, full curve]",
O=Cc1c(NCCCN2CCCC2=O)c2ccccc2[nH]c1=O,,inactive: -0.852%
Cc1ccc(CNC(=O)c2cc(-c3ccccc3C)n(CC3CC(c4cccc([N+](=O)[O-])c4)=NO3)n2)cc1 (centres undefined),active: 5.22 µM,
CN(CC(=O)Nc1ccc(Cl)c(Cl)c1)C(=O)C1CCCC1,"inconclusive [inhibitor, single point]",
O=C(C1CCCN(c2ncnc3c2nc2n3CCCCC2)C1)N1CCN(c2ccccc2)CC1 (centres undefined),"inconclusive [inhibitor, partial curve]",
C=CCN(CC=C)C(=O)C(=O)c1ccn(-c2c(C)csc2C(=O)OC)c1,"inconclusive [inhibitor, single point]",
O=C(c1ccccc1)c1nc2ccccc2n(CCCn2c(=O)c(C(=O)c3ccccc3)nc3ccccc32)c1=O,active: 3.7 µM,
COc1cc(C(=O)N/N=C/c2ccc(OC(=O)c3cccc(C)c3)cc2)ccc1O,"inconclusive [inhibitor, single point]",
O=C(CCl)N(c1ccccc1)C1CCCCC1,active: 10.4 µM,
Oc1ccccc1CN(CCc1ccccc1)Cc1ccccc1,"inconclusive [inhibitor, full curve]",
C#CCOCCOCCOCCNc1nc(N2CCN(C(=O)C(Cc3cc4ccccc4[nH]3)n3cc(C(N)Cc4ccc(O)cc4)nn3)CC2)nc(N2CCN(C(=O)C(CCC(=O)O)n3cc(C(N)C(C)CC)nn3)CC2)n1 (centres undefined),"inconclusive [inhibitor, partial curve, poor fit]",
Cc1cc(N/N=C/c2ccc(O)c(C)c2O)nc(-c2ccccc2O)n1,active: 5.86 µM,
COc1cccc(CC2(CO)CCCN(Cc3cn(C)c4ccccc34)C2)c1 (centres undefined),"inconclusive [inhibitor, partial curve]",
Nn1c(SCc2cc([N+](=O)[O-])cc3c2OCOC3)nnc1-c1cccnc1,"inconclusive [inhibitor, single point]",
COc1ccc(N2C(=O)CC(Sc3ncn[nH]3)C2=O)c(OC)c1 (centres undefined),,inactive: -14.2%
Cc1ccc(N=C2NC(=O)/C(=C/c3cccn3C)S2)cc1C,"inconclusive [inhibitor, partial curve]",

SMILES,Potency,"activity change, negative = inhibition"
COc1ccc(-n2cc(C#N)c(=O)[nH]c2=O)cc1,"inconclusive [inhibitor, partial curve]",
CNC(=O)c1[nH]cnc1C(=O)Nc1cccc(Cl)c1,,inactive: 86.1%
CCOc1ccc(S(=O)(=O)NCCC(=O)NCC(c2ccco2)N2CCCCC2)cc1 (centres undefined),"inconclusive [inhibitor, single point]",
CSc1ccc(/C=C(/Sc2nnc(-c3ccccc3)o2)C(=O)O)cc1,,inactive: 7.34%
O=C(N/N=C/c1ccc([N+](=O)[O-])s1)c1cccc(Br)c1,active: 4.15 µM,
CCc1ccc(-c2cc(C)no2)cc1S(=O)(=O)N1CCN(c2ccccc2OC)CC1,"inconclusive [inhibitor, partial curve]",
COCC1CCCCN1C(=O)c1cccc(OC2CCN(S(C)(=O)=O)CC2)c1 (centres undefined),,inactive: 26.6%
COc1ccc2oc(C(=O)OCC(=O)NC3(C#N)CCCC3)c(C)c2c1,"inconclusive [inhibitor, partial curve, poor fit]",
CCC(C)N1C(=O)NC(=O)C2(Cc3cc(C)ccc3N(C)C2)C1=O (centres undefined),"inconclusive [inhibitor, partial curve, poor fit]",
COc1ccc(NS(=O)(=O)c2cccc(C(=O)NNC(=O)c3cccc(NC(C)=O)c3)c2)cc1,"inconclusive [inhibitor, single point]",
Cc1c(C(C)CCCO)oc(=O)c2c1Oc1c(C)c(C(C)C[C@H](C)O)oc(=O)c1C2 (some centres undefined),"inconclusive [inhibitor, single point]",
CCOc1ccccc1OC(=O)CN1C(=O)c2ccccc2C1=O,,inactive: 7.11%
CCCn1c(C(O)c2ccc(C)cc2)nc2ccccc21 (centres undefined),"inconclusive [inhibitor, partial curve]",
COc1ccccc1NC(=O)C(=O)NCCC1CCCCN1S(=O)(=O)c1cccs1 (centres undefined),"inconclusive [inhibitor, single point]",
COc1ccc(C(=O)OC(C)C(=O)NC2CCCCC2C)cc1S(=O)(=O)N1CCOCC1 (centres undefined),"inconclusive [inhibitor, single point]",
CCCc1c(C(=O)N/N=C/c2sccc2C)nnn1-c1nonc1N,,inactive: 41%
CN(C)S(=O)(=O)N1CCCC(C(=O)c2ccc(-c3ccccc3)c(F)c2)C1 (centres undefined),"inconclusive [inhibitor, single point]",
C=CCOc1ccc(CN(C)C(=O)c2ccc(CNS(=O)(=O)c3ccc(C)c(C)c3)cc2)cc1,"inconclusive [inhibitor, single point]",
COc1ccc(C2(CNC(=O)c3ccc(OC)c([N+](=O)[O-])c3)CCCCC2)cc1OC,"inconclusive [inhibitor, partial curve, poor fit]",
CCO[C@@H]1OC(C(=O)NCc2ccccc2)=C[C@H](c2cn(C(C)=O)c3ccccc23)[C@H]1CCCO,active: 5.22 µM,
O=c1nc(-c2ccccc2)c2cc(SC(F)F)ccc2[nH]1,"inconclusive [inhibitor, partial curve, poor fit]",
CCOC(=O)N1CCN(C(=O)c2oc3ccc(S(=O)(=O)N4CC(C)CC(C)C4)cc3c2C)CC1 (centres undefined),"inconclusive [inhibitor, partial curve, poor fit]",
OC(COC(c1ccccc1)c1ccccc1)CN1CCCCC1 (centres undefined),"inconclusive [inhibitor, single point]",

SMILES,Potency,"activity change, negative = inhibition"
O=C(CN1CCN(c2ccccc2O)CC1)Nc1ccc2c(c1)CCC2,"inconclusive [inhibitor, single point]",
O=C(NCCCNC(=O)c1cc(Cl)ccc1Cl)c1ccco1,,inactive: 18.6%
Cc1cc(O)c(NC(=O)c2cc([N+](=O)[O-])ccc2Cl)cc1C,"inconclusive [inhibitor, partial curve, poor fit]",
CCCn1ncc(/C=N/O)c1C,,inactive: 8.02%
CC(=O)c1ccc(NC(=O)c2cccc(S(=O)(=O)N3CCN(C)CC3)c2)cc1,"inconclusive [inhibitor, partial curve, poor fit]",
CCOC(=O)N1CCN(C(=O)CNC(=O)c2nn(-c3ccc(OC)cc3)c(=O)c3ccccc23)CC1,,inactive: -5.18%
Cc1ccc(CN2CCNC(=O)C2CC(=O)O)o1 (centres undefined),,inactive: 1.66%
Cn1cc([N+](=O)[O-])c(C(=O)NC2CCCCCC2)n1,,inactive: -0.625%
CNC(=S)N/N=C/c1cn(CCOc2cccc(OC)c2)c2ccccc12,"inconclusive [inhibitor, single point]",
COc1ccc(NC(=O)C(=O)N/N=C/c2cc(C)n(-c3cccc(Cl)c3Cl)c2C)c(OC)c1,"inconclusive [inhibitor, single point]",
COc1ccc(NC(=O)C#Cc2ccccc2)cc1OC,"inconclusive [inhibitor, single point]",
CCc1ccc(C2=CSC3=NCCN23)cc1,,inactive: -5.06%
COc1ccc(Cn2nnnc2C(c2cccs2)N2CCN(c3ccc([N+](=O)[O-])cc3)CC2)cc1 (centres undefined),active: 10.4 µM,
CC1CCc2cc(F)ccc2N1C(=O)CSc1nnc2c(n1)[nH]c1ccccc12 (centres undefined),active: 1.47 µM,
CCC(C)c1ccc(NC(=S)Nc2ccc(OC)cc2)cc1 (centres undefined),,inactive: -3.29%
CC(C)Cc1nnc(NC(=O)CCC(=O)N2CCN(c3ccc([N+](=O)[O-])cc3)CC2)s1,"inconclusive [inhibitor, single point]",
CS(=O)(=O)NCCCNc1ccc(C(F)(F)F)cc1[N+](=O)[O-],"inconclusive [inhibitor, single point]",
O=C(O)c1cccc(-n2cccc2C=C2C(=O)c3ccccc3C2=O)c1,,inactive: -4.25%
Fc1ccc(CCNC(=S)Nc2ccc(F)c(Cl)c2)cc1,"inconclusive [inhibitor, single point]",
OC1(C(F)(F)F)CC(O)(C(F)(F)F)n2nc(-c3ccccc3)cc2N1 (centres undefined),"inconclusive [inhibitor, single point]",
Cc1ccc(O)c(C(=O)c2cnc3c(c2)COc2ccccc2-3)c1,active: 4.15 µM,
C=CSc1sc(Cl)c(N2CCOCC2)c1[N+](=O)[O-],active: 8.28 µM,
O=C(CCCn1c(SCC(=O)c2ccccc2)nc2ccccc2c1=O)NCC1CCCO1 (centres undefined),"inconclusive [inhibitor, single point]",
